This is an account of results in article PMC4336329 (PLoS ONE, 2015).

Screen size: about 310,000 compounds; about 2,200 (0.71%) showed an effect of 50% or more. Effects have a minus sign here. This is one part of the list.

human ether-à-go-go-related gene (hERG) potassium channel, sequence (Q12809 whole entry, looked up): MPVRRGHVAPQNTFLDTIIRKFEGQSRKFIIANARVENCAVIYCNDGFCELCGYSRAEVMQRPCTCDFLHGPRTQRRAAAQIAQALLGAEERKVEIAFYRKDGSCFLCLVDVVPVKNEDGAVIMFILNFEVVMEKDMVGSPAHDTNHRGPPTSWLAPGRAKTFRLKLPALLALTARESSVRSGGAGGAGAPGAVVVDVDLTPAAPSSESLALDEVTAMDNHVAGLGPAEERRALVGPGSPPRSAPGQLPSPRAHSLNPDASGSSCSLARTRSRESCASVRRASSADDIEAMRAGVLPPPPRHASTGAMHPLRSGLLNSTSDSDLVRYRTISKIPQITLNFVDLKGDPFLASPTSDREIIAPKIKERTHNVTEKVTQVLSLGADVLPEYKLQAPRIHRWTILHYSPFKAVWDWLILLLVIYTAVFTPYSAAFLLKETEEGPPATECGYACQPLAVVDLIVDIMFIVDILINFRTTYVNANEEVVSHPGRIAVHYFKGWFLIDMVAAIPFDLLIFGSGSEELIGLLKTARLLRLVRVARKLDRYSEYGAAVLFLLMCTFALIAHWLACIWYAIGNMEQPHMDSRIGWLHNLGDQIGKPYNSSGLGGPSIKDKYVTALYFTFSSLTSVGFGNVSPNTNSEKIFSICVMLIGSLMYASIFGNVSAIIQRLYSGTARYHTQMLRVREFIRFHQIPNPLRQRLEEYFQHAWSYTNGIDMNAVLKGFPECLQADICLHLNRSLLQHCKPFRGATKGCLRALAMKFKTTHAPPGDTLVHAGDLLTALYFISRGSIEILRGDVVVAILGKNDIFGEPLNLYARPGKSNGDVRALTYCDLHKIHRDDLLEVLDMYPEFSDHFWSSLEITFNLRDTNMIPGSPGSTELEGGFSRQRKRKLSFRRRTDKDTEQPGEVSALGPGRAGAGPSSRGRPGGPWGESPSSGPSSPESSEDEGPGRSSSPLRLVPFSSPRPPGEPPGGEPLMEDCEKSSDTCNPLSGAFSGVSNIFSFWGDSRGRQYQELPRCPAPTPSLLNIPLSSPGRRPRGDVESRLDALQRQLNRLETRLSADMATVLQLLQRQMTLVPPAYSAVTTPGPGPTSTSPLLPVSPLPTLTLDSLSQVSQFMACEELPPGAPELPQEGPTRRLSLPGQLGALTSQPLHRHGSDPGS

This assay has as its target human ether-à-go-go-related gene (hERG) potassium channel (human, UniProt Q12809). Put plainly: primary screen, population patch clamp on CHO cells stably expressing hERG.
Regarding `Cc1csc(NC(=O)c2nc3nc(C)cc(C)n3n2)n1`, the “hERG current change (%, negative = inhibition) at 1uM” value is 5.55%.
Under `COc1ccc(S(=O)(=O)N2CCOCC2)cc1C(=O)Nc1cc(C)on1` stands 11.8%; under `Cc1onc(-c2ccccc2)c1C(=O)N/N=C/C(Br)=C/c1ccccc1`, 5.2%; under `CCOC(=O)NCc1ccc(S(=O)(=O)Nc2ccc(C)cc2)cc1`, 9.48%.
Under `COc1ccc2oc(C(=O)NCC3CCCO3)c(C)c2c1` (stereo not shown) stands 0.884%; under `COc1cc2nc(N3CCN(c4cc(C)ccc4C)CC3)nc(N)c2cc1OC.Cl`, 10.7%.
`CCC(=O)NC(=S)Nc1ccc(NC(=O)c2cccnc2)cc1`: the “hERG current change (%, negative = inhibition) at 1uM” value is 7.36%.
The figure for `CCC1CCC(C(=O)NC(C(=O)Nc2ccc3c(c2)OCCO3)C(C)C)CC1` (stereo not shown) is 4.93%; for `COC(=O)c1ccc(NC(=O)C2CCCCC2C(=O)O)cc1` (stereo not shown) it is 21.9%.
Under `COc1ccsc1C(=O)Nc1ccc(F)cc1F` stands 12.8%.
On to `O=C1CC(N2CCN(c3cccc(C(F)(F)F)c3)CC2)C(=O)N1c1ccccc1F` (stereo not shown), for which the “hERG current change (%, negative = inhibition) at 1uM” value was found to be 7.3%.
Under `CCCCCCn1c(N(CC)CC)nc2c1c(=O)[nH]c(=O)n2C` stands -11.6%; under `CC(=O)c1sc(C(=O)O)c(-c2ccco2)c1-c1ccco1`, 11.9%; under `COCc1c(C(=O)NCCOc2ccc(Cl)cc2)oc2ccccc12`, 2.54%.
As to `Cc1cccc(OCC(=O)OCC(=O)c2c(N)n(C)c(=O)n(C)c2=O)c1C`, the “hERG current change (%, negative = inhibition) at 1uM” value was 8%.
On to `CCOC(=O)/C(C#N)=C/c1cc2cc(C)c(C)cc2nc1Cl`, for which the “hERG current change (%, negative = inhibition) at 1uM” value stood at 5.2%.
Under `COc1cccc(CNC(=O)COc2ccc(C(=O)c3ccccc3)cc2)c1` stands 6.67%; under `COc1ccc(-n2cnc3cc(NS(=O)(=O)c4ccccc4)ccc32)cc1`, 10.8%; under `N#Cc1ccc2c(c1)nnn2-c1ccccc1`, 6.38%.
Under `Cc1ccc(C(=O)c2c(NC(=O)CSc3nnc(N)s3)sc3c2CCCC3)cc1` stands 12.6%.
Under `O=C(O)Cc1ccc2sc(-c3ccccc3)nc2c1` stands 12.9%; under `O=C(NCc1cccs1)c1ccc(N2CCCC2=O)cc1`, 9.91%.
Consider `CC(C)CCC(C(=O)[O-])C(C)CC(=O)NNC(=O)c1ccco1.[Na+]` (stereo not shown), for which the “hERG current change (%, negative = inhibition) at 1uM” value is recorded as 12.4%.
The figure for `O=C(COC(=O)C1(c2ccc(Cl)cc2)CCCC1)Nc1ncc(C(F)(F)F)cc1Cl` is 5.56%; for `O=C(NN1CCOCC1)c1cccc(F)c1` it is 12.7%.
